As usually defined, the Ki is the equilibrium dissociation constant of an inhibitor or competing ligand from its target.

One assay has as its target Recombinant heterodimeric HCV NS3/NS4A protease (strain 1a) (Hepatitis C virus genotype 1a, UniProt P27958). Put plainly: Spectrophotometric assay for HCV serine protease inhibitory activity (chromogenic ester substrates). In kind it is biochemical. The conditions noted are these: Table 3, sulfone compounds; HCV serine protease; read-out: Ki* range.
For `C=CCNC(=O)C(=O)C(CCC)NC(=O)[C@@H]1[C@@H]2[C@H](CN1C(=O)[C@@H](NC(=O)NC1(CS(=O)(=O)CCC(C)C)CCCCC1)C1Cc3ccccc3C1)C2(C)C` (stereo partly shown) [Compound 283], the Ki was below 0.075 µM. For `CC(C)(C)[C@H](NC(=O)NC1(CS(=O)(=O)C(C)(C)C)CCCCC1)C(=O)N1C[C@H]2[C@@H]([C@H]1C(=O)NC(CC1CCC1)C(=O)C(N)=O)C21CCCC1` (stereo partly shown) [Compound 278], the inhibitory constant (Ki) was below 0.075 µM. On the same count and under the same terms, in the case of `CC(C)(C)[C@H](NC(=O)N[C@H](CS(=O)(=O)C(C)(C)C)C1CCCCC1)C(=O)N1C[C@H]2[C@@H]([C@H]1C(=O)NC(CC1CCC1)C(=O)C(N)=O)C2(C)C` (stereo partly shown) [Compound 177] it was below 0.075 µM. For `CC(C)(C)[C@H](NC(=O)NC1(CCS(=O)(=O)C(C)(C)C)CCCCC1)C(=O)N1C[C@H]2[C@@H]([C@H]1C(=O)NC(CC1CC1)C(=O)C(N)=O)C2(C)C` (stereo partly shown) [Compound 267], the inhibition constant (Ki) was in the range of 0.075 to 0.25 µM.

Still in this assay, the particulars now being: Table 3A; cells that print a number instead of a class symbol; read-out: Ki* Range.
As to `CCC[C@H](NC(=O)[C@@H]1[C@@H]2[C@H](CN1C(=O)[C@@H](NC(=O)NC1(CS(=O)(=O)C3(C)CCCCC3)CCCCC1)C(C)(C)C)C2(C)C)C(=O)C(=O)NC1CC1` [Compound 739], the inhibition constant (Ki) came out at 0.018 µM.

The assay is the same for the next values; noted with them: Table 3A; class symbols; read-out: Ki* Range.
For `C=CCNC(=O)C(=O)C(CCC)NC(=O)[C@@H]1[C@@H]2[C@H](CN1C(=O)[C@@H](NC(=O)NC1(CS(=O)(=O)C(C)(C)COC3CCCCO3)CCCCC1)C(C)(C)C)C2(C)C` (stereo partly shown) [Compound 708], the inhibitory constant (Ki) was below 0.075 µM. Still for that read-out and setting: in the case of `C=C(F)CNC(=O)C(=O)[C@H](CCCC)NC(=O)[C@@H]1[C@@H]2[C@H](CN1C(=O)[C@@H](NC(=O)NC1([C@@H]3CCCS3(=O)=O)CCCCC1)C(C)(C)C)C2(C)C` [Compound 883-bl] it was below 0.075 µM. The same measure, in the same setting: under `CCCC[C@H](NC(=O)[C@@H]1[C@@H]2[C@H](CN1C(=O)[C@@H](NC(=O)NC1(CS(=O)(=O)C(C)(C)CO)CCCCC1)C1(C)CCCCC1)C2(C)C)C(=O)C(=O)NC1CC1` [Compound 809] stands below 0.075 µM. With `CC(C)(C)[C@H](NC(=O)NC1(CS(=O)(=O)C(C)(C)COC2CCCCO2)CCCCC1)C(=O)N1C[C@H]2[C@@H]([C@H]1C(=O)NC(CCC1CC1)C(=O)C(=O)NC1CC1)C2(C)C` (stereo partly shown) [Compound 706], the Ki is below 0.075 µM. Same read-out and setting: in the case of `CCCNC(=O)C(=O)[C@H](CC1CC1)NC(=O)[C@@H]1[C@@H]2[C@H](CN1C(=O)[C@@H](NC(=O)NC1(C3OCCS3(=O)=O)CCCCC1)C(C)(C)C)C2(Cl)Cl` (stereo partly shown) [Compound 883-dg] it was below 0.075 µM; in that of `CC(C)(C)[C@H](NC(=O)NC1([C@@H]2CCCS2(=O)=O)CCCCC1)C(=O)N1C[C@H]2[C@@H]([C@H]1C(=O)N[C@@H](CCC1CC1)C(=O)C(=O)NC1CC1)C2(Cl)Cl` [Compound 883-h], below 0.075 µM; in that of `CCC[C@H](NC(=O)[C@@H]1[C@@H]2[C@H](CN1C(=O)[C@@H](NC(=O)NC1(C3CCCS3(=O)=O)CCCCC1)C1(C)CCCCC1)C2(C)C)C(=O)C(=O)NC1CC1` (stereo partly shown) [Compound 883-fd], below 0.075 µM.

In the case of `CCCC[C@H](NC(=O)[C@@H]1[C@@H]2[C@H](CN1C(=O)[C@@H](NC(=O)NC1(C3OCCCS3(=O)=O)CCCCC1)C(C)(C)C)C2(C)C)C(=O)C(=O)NCCC` (stereo partly shown) [Compound 883-cm], the inhibitory constant (Ki) was below 0.075 µM.

On to `CCCC(C)(C)S(=O)(=O)CC1(NC(=O)N[C@H](C(=O)N2C[C@H]3[C@@H]([C@H]2C(=O)NC(CC2CC2)C(=O)C(=O)NC2CC2)C3(C)C)C2(C)CCCCC2)CCCCC1` (stereo partly shown) [Compound 448], for which the Ki is below 0.075 µM. With `C=CCNC(=O)C(=O)C(CCC)NC(=O)[C@@H]1CC2(CN1C(=O)[C@@H](NC(=O)NC1(CS(=O)(=O)C(C)(C)C)CCCCC1)C(C)(C)C)SCCCS2` (stereo partly shown) [Compound 647], the Ki is below 0.075 µM. `CCCC(NC(=O)[C@@H]1[C@@H]2[C@H](CN1C(=O)[C@@H](NC(=O)NC1(CS(=O)(=O)C(C)(C)c3ccccc3)CCCCC1)C1(C)CCCCC1)C2(C)C)C(=O)C(=O)NC1CC1` (stereo partly shown) [Compound 518]: the Ki is below 0.075 µM.

Take `CCC[C@H](NC(=O)[C@@H]1[C@@H]2[C@H](CN1C(=O)[C@@H](NC(=O)NC1(CS(=O)(=O)C(C)(C)C)CCCCC1)C1(C)CCCCC1)C2(C)C)C(=O)C(=O)NC1CC1` [Compound 687]: the inhibition constant Ki was below 0.075 µM. As for `CCCC[C@H](NC(=O)[C@@H]1[C@@H]2[C@H](CN1C(=O)[C@@H](NC(=O)NC1([C@@H]3CCCS3(=O)=O)CCCCC1)C(C)(C)C)C2(Cl)Cl)C(=O)C(=O)NCCC` [Compound 883-dq], the Ki was below 0.075 µM.

Turning to `CC1([C@H](NC(=O)NC2([C@H]3CCCS3(=O)=O)CCCCC2)C(=O)N2C[C@H]3[C@@H]([C@H]2C(=O)N[C@@H](CCC2CC2)C(=O)C(=O)NCCF)C3(C)C)CCCCC1` [Compound 883-ei], the Ki was below 0.075 µM. On the same count and under the same terms, in the case of `CC(C)CCC(NC(=O)[C@@H]1[C@@H]2[C@H](CN1C(=O)[C@@H](NC(=O)NC1(CS(=O)(=O)C(C)(C)C)CCCCC1)C1CCCCC1)C2(C)C)C(=O)C(=O)NC1CC1` (stereo partly shown) [Compound 579] it was below 0.075 µM. Still for that read-out and setting: in the case of `C=CCNC(=O)C(=O)[C@H](CCCC)NC(=O)[C@@H]1[C@@H]2[C@H](CN1C(=O)[C@@H](NC(=O)NC1(CS(=O)(=O)C(C)(C)CF)CCCCC1)C(C)(C)C)C2(C)C` [Compound 774] it was below 0.075 µM.

For `C#CCCC(NC(=O)[C@@H]1[C@@H]2[C@H](CN1C(=O)[C@@H](NC(=O)NC1(CS(=O)(=O)C(C)(C)CO)CCCCC1)C1(C)CCCCC1)C2(C)C)C(=O)C(=O)NC1CC1` (stereo partly shown) [Compound 685], the Ki was below 0.075 µM. The same measure, in the same setting: in the case of `C#CCNC(=O)C(=O)C(CC1CCC1)NC(=O)[C@@H]1[C@@H]2[C@H](CN1C(=O)[C@@H](NC(=O)NC1(CS(=O)(=O)C(C)(C)C)CCCCC1)C1(C)CCCCC1)C2(C)C` (stereo partly shown) [Compound 438] it was below 0.075 µM. With `C=CCNC(=O)C(=O)[C@H](CCC1CC1)NC(=O)[C@@H]1[C@@H]2[C@H](CN1C(=O)[C@@H](NC(=O)NC1(CS(=O)(=O)C3(C)CCOCC3)CCCCC1)C(C)(C)C)C2(C)C` [Compound 883-ab], the Ki is below 0.075 µM. Regarding `CC1([C@H](NC(=O)NC2(CS(=O)(=O)C(C)(C)C)CCCCC2)C(=O)N2C[C@H]3[C@@H]([C@H]2C(=O)N[C@@H](CCC2CC2)C(=O)C(=O)NCCF)C3(C)C)CCCCC1` [Compound 883-ef], the inhibitory constant (Ki) is below 0.075 µM. The same measure, in the same setting: under `C=CCNC(=O)C(=O)C(CCC1CC1)NC(=O)[C@@H]1[C@@H]2[C@H](CN1C(=O)[C@@H](NC(=O)N[C@](C)(CC(C)C)CS(=O)(=O)C(C)(C)C)C1(C)CCCCC1)C2(C)C` (stereo partly shown) [Compound 571] stands below 0.075 µM; under `C=CCNC(=O)C(=O)C(CCCC)NC(=O)[C@@H]1C[C@@H](CNC(C)=O)CN1C(=O)[C@@H](NC(=O)NC1(CS(=O)(=O)C(C)(C)C)CCCCC1)C(C)(C)C` (stereo partly shown) [Compound 683], above 0.25 µM; under `CCCC(NC(=O)[C@@H]1[C@@H]2[C@H](CN1C(=O)[C@@H](NC(=O)NC1(C3CCCS3(=O)=O)CCCCC1)C1(C)CCCCC1)C2(C)C)C(=O)C(=O)NC1CC1` (stereo partly shown) [Compound 615], below 0.075 µM.

Still in this assay, the particulars now being: Table 4A; read-out: Ki* Range.
On to `C=CCNC(=O)C(=O)C(CC1CC1)NC(=O)[C@@H]1[C@@H]2[C@H](CN1C(=O)[C@@H](NC(=O)N[C@H]([C@H]1CCN(Cc3ccc(OC)cc3)S1(=O)=O)C(C)(C)C)C1(C)CCCCC1)C2(C)C` (stereo partly shown) [Compound 1115], for which the Ki is above 0.25 µM. In the case of `C=CCNC(=O)C(=O)C(CC1CC1)NC(=O)[C@@H]1[C@@H]2[C@H](CN1C(=O)[C@@H](NC(=O)N[C@H](CS(=O)(=O)N(C)C(C)(C)C)C(C)(C)C)C1CCCCC1)C2(C)C` (stereo partly shown) [Compound 1106], the Ki was 0.075 to 0.25 µM.

Still in this assay, the particulars now being: Table 5; read-out: Ki*.
Turning to `CC1([C@H](NC(=O)NC2(CS(=O)(=O)C(C)(C)C)CCCCC2)C(=O)N2C[C@H]3C([C@H]2C(=O)N[C@@H](CCC2CC2)C(=O)C(=O)NC2CC2)C3(C)C)CCCCC1` (stereo partly shown), the Ki amounted to 0.003 µM.

For the origin of these results see patent US8067379B2, “Sulfur compounds as inhibitors of hepatitis C virus NS3 serine protease” (Schering Corporation, priority 2004, dated 2011).
